This note sets out measurements from PubChem BioAssay AID1508624 (National Center for Advancing Translational Sciences (NCATS), 2021).

Among all 48,000 compounds or so, about 120 (0.25%) were called active. Another 4% or so got no clear call; they are omitted. Calls follow the shape of the dose curve; as a rule, active = well fitted activation curve with a large enough effect; inconclusive = small, poorly fitted or top-dose-only effect, or another doubt; inactive = no such curve, though single readings can be large or run the other way. The list shows a part of the results.

This assay is described as follows: Primary qHTS for Identification of Small Molecule Activators of Huntingtin-Antisense Promoter Activity. Also: nearly all actives have a fitted effect of over 55% in size. Conditions: HEK293 HTT-AS promoter firefly luciferase reporter, 24 h; series mostly up to 57.5 µM; activity change, positive = activation: at the top concentration. The method in brief: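 Firefly luciferase readout (Dual-Glo, 10 min RT) after 24 h, 37 °C compound exposure (final up to 57.5 uM) of HEK293 reporter cells cultured 24 h beforehand; PTC124 at 50 uM final as control inhibitor; activity scaled vehicle 0%, zero RLU -100%.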
Background: In qHTS, concentration-response curves come from the screen itself.
Regarding `O=C(Cc1ccccc1)Nc1c(C(=O)Nc2ccccc2F)oc2ccccc12`, the “activity change, positive = activation” value is inactive: -2.03%. `CCc1ccc(-c2[nH]c3c(c2-c2sc(C)c(C(=O)OC)c2O)c(=O)n(C)c(=O)n3C)cc1`: the “activity change, positive = activation” value is inactive: -3.05%.

Turning to `Cc1cccc(-n2nnnc2S(C)(=O)=O)c1`, the “activity change, positive = activation” value is inactive: -95.1%. As to `COc1ccc(N(C)C(=O)CCS(=O)(=O)c2cccc3nsnc23)cc1`, the “activity change, positive = activation” value is inactive: -13.5%. Take `COc1cccc2sc(N(Cc3cccnc3)C(=O)C3COc4ccccc4O3)nc12` (stereo not given): the “activity change, positive = activation” value was inactive: -13.5%. On to `COc1cccc2c1C(=O)c1c(O)c3c(c(O)c1C2=O)C[C@@](O)(C(=O)CO)C[C@H]3O[C@H]1C[C@H](N)[C@H](O)[C@H](C)O1`, for which the “activity change, positive = activation” value was inactive: -48.3%.

As for `Cc1c(NC(=O)c2ccccc2F)cccc1-c1nc2cccnc2s1`, the “activity change, positive = activation” value is inactive: -2.71%. For `O=C(Cn1ncc2c(=O)oc3ccccc3c21)NCc1ccc(Cl)cc1` the value was inactive: -6.76%; for `CC(=O)N1CCCc2cc(S(=O)(=O)N(C)CC(=O)Nc3ccc(Cl)cc3C)ccc21`, inactive: -21.5%. Take `NC(=O)C1(N2CCCCC2)CCN(CCCN2c3ccccc3CCc3ccc(Cl)cc32)CC1`: the “activity change, positive = activation” value was inactive: -37.8%. For `CCC(=O)N1CCc2cc(Br)cc(S(=O)(=O)NCCc3ccccc3)c21` the value was inactive: -28.3%. With `CCCCC/C=C\C/C=C\CCCCCCCC(=O)NC(C)c1ccccc1` (stereo not given), the “activity change, positive = activation” value was inactive: -18.4%.

Take `O=C(NCCCN1CCN(c2ccccc2F)CC1)c1nnc(Cc2ccc(Cl)cc2Cl)o1`: the “activity change, positive = activation” value is inactive: -23.5%.

As for `CCOC(=O)c1c(NC(=O)COc2ccc(F)cc2)sc2c1CCC(C)C2` (stereo not given), the “activity change, positive = activation” value was inactive: 8.41%. For `CC(C)(C)C(=O)Nc1cccc(C(=O)OCc2cc(=O)n3nc(C4CCCCC4)sc3n2)c1` the value was inactive: -3.14%; for `O=C(CSc1nc2ccccc2n1Cc1ccccc1Cl)NCc1ccccc1`, inactive: -25.8%.

For `CCOC(=O)c1[nH]cnc1C(=O)Nc1ccc(F)cc1`, the “activity change, positive = activation” value was inactive: -9.95%. Turning to `CCCCN(C)CCNC(=O)c1nn(-c2ccc(OC)cc2)c(=O)c2c1c1ccccc1n2C`, the “activity change, positive = activation” value is inactive: 3.9%. With `COc1cccc(CNC(=O)CCNS(=O)(=O)c2ccc3c(c2)oc(=O)n3C)c1`, the “activity change, positive = activation” value is inactive: -3.72%. As to `Cc1cc(C)c(Cn2c(C(O)c3ccccc3)nc3ccccc32)c(C)c1` (stereo not given), the “activity change, positive = activation” value is inactive: -25.2%.

`CCN1CCN(CCCNC(=O)c2ccc3c(c2)sc2nc(-c4ccc(OC)cc4)cn23)CC1`: the “activity change, positive = activation” value is inactive: -13%. As for `CCOC(=O)c1c(-c2ccc(OC)cc2)oc2ccc(OCc3ccc(C(=O)OC)cc3)cc12`, the “activity change, positive = activation” value was inactive: -19.3%. For `CCNc1c(NC(=O)c2cc(OCC)c(OCC)c(OCC)c2)c(=O)oc2ccccc12`, the “activity change, positive = activation” value was inactive: -18.2%. As to `CC(NC(=O)C(=O)Nc1c2c(nn1-c1ccc(F)cc1)CSC2)c1ccccc1` (stereo not given), the “activity change, positive = activation” value is inactive: -16%. With `COc1cccc(CNC(=O)CCn2cccn2)c1`, the “activity change, positive = activation” value is inactive: -0.486%.

For `CCOC(=O)CSc1nc2ccc(NC(=O)c3ccccc3)cc2s1`, the “activity change, positive = activation” value was inactive: -6.61%. With `Cc1ccc(C)c(N2CCN(Cc3nnc(-c4ccccc4)o3)CC2)c1`, the “activity change, positive = activation” value was inactive: 3.72%. With `COc1cccc(C(=O)c2cn(CC(=O)Nc3cccc(C)c3C)c3nc(C)ccc3c2=O)c1`, the “activity change, positive = activation” value is inactive: -13%.

As to `CCOCCCn1c(SCC(=O)Nc2ccc(OC)cc2OC)nc2ccccc2c1=O`, the “activity change, positive = activation” value was inactive: -12%.

For the compound `CCc1ccc(C(=O)Nc2ccc3nn(-c4ccc(C)c(Cl)c4)nc3c2)cc1`, the “activity change, positive = activation” value is inactive: 4.67%. `Cc1cccc(C)c1NC(=O)Cn1nc(C)c2sc3ccccc3c2c1=O`: the “activity change, positive = activation” value was inactive: -5.18%. Take `Cc1ccc(CN2CCc3nc(SCC(=O)Nc4cccc(C)c4C)[nH]c(=O)c3C2)cc1`: the “activity change, positive = activation” value is inactive: 0.0664%. With `CCN(Cc1ccccc1)C(=O)CN1C(=O)COc2ccc(S(=O)(=O)N3CCCCCC3)cc21`, the “activity change, positive = activation” value was inactive: -24.6%. For the compound `CCn1cc2nc(SCc3ccccc3F)n(Cc3ccc(C)cc3)c(=O)c2n1`, the “activity change, positive = activation” value was inactive: -6.59%. As to `Cc1ccc(NC(=O)CCS(=O)(=O)c2cccc3nsnc23)c(C)c1`, the “activity change, positive = activation” value was inactive: -18.9%.

On to `CCOc1ccc(NC(=O)CCS(=O)(=O)c2ccc3c(c2)n(C)c(=O)c(=O)n3C)cc1`, for which the “activity change, positive = activation” value was inactive: -12.2%. Take `CCOc1ccc(NC(=O)CSc2nc(-c3ccc(F)cc3)cc(C(F)(F)F)c2C#N)cc1`: the “activity change, positive = activation” value is inactive: -5.02%. As for `Cc1ccc2cccc(NC(=O)C(C)(C)Oc3ccc(Br)cc3)c2n1`, the “activity change, positive = activation” value was inactive: -14.1%. In the case of `CCOC(=O)c1ccccc1NC(=O)Cn1c2ncccc2c(=O)n1-c1ccccc1`, the “activity change, positive = activation” value was inactive: 7.89%. As to `COC(=O)c1cc2occc2n1Cc1nc(-c2ccc(C)cc2)oc1C`, the “activity change, positive = activation” value was inactive: -10.5%. For the compound `Cc1nc2c(C(=O)NC(C)c3ccccc3)cnn2c(C)c1Cc1ccccc1` (stereo not given), the “activity change, positive = activation” value is inactive: -54.4%. The figure for `C[C@@]12O[C@@H](C[C@]1(O)CO)n1c3ccccc3c3c4c(c5c6ccccc6n2c5c31)CNC4=O` is inactive: -50%; for `CC1=C(CC(=O)O)c2cc(F)ccc2C1=Cc1ccc(S(C)=O)cc1` (stereo not given) it is inactive: -54.1%; for `CCC(=O)Nc1nnc(S(=O)(=O)N2CCc3ccccc32)s1` it is inactive: -19%.

With `O=C(CCNS(=O)(=O)c1ccc2c(c1)CCN2C(=O)C1CC1)Nc1ccc(F)cc1F`, the “activity change, positive = activation” value is inactive: -27%. As to `COc1ccc(N2CC(NC(=O)c3ccc(S(=O)(=O)N4CCCCC4)cc3)CC2=O)cc1OC` (stereo not given), the “activity change, positive = activation” value was inactive: -29.1%. Regarding `Cc1cccc(NC(=O)c2cc(S(=O)(=O)N3CCC4(CC3)OCCO4)ccc2F)c1`, the “activity change, positive = activation” value was inactive: -18%. For `COc1cc(OC)cc(-c2nc3nc(C)c(CCC(=O)Nc4cc(F)ccc4F)c(C)n3n2)c1` the value was inactive: -20.3%; for `CCOC(=O)c1ccc(NC(=O)Cn2cc(C(=O)c3ccc(Cl)cc3)c(=O)c3ccc(C)nc32)cc1`, inactive: -29.1%. As for `O=C(NCCc1csc(-c2ccc(F)cc2)n1)c1ccc(Br)o1`, the “activity change, positive = activation” value was inactive: -21.2%. The figure for `Cc1ccccc1CN1CCN(CC(=O)NCc2ccccc2Cl)C1=O` is inactive: 26.3%. Regarding `CCSc1ncc(Cl)c(C(=O)Nc2c(C(=O)c3ccccc3)oc3ccccc23)n1`, the “activity change, positive = activation” value is inactive: -2.75%. With `COc1ccc2oc(-c3ccc(C)c(NC(=O)Cc4ccc(Cl)cc4)c3)nc2c1`, the “activity change, positive = activation” value is inactive: -5.09%. The figure for `Cc1c(NC(=O)c2cc(=O)c3cc(Cl)ccc3o2)c(=O)n(-c2ccccc2)n1C` is inactive: 2.11% [at 11.5 µM, percent change from vehicle, -100% = no light]; for `Cc1cccc(-c2nc(Cn3c(SCc4cccc(C(F)(F)F)c4)nc4ccncc43)c(C)o2)c1` it is inactive: -30.2%; for `Fc1ccc2c(c1)NC(c1ccncc1)=NC(c1cccs1)=N2` it is inactive: -4.84%. For `CCn1c(SCc2ccccc2F)nc(=O)c2c(C(=O)OC)cc(C3CC3)nc21` the value was inactive: -42.3%; for `CCCNc1ccc(-c2nc(-c3ccncc3)no2)cc1[N+](=O)[O-]`, inactive: -3.26%.

Take `CCOc1ccc(-c2cc(C(=O)NCc3ccc(C)cc3)c3ccccc3n2)cc1`: the “activity change, positive = activation” value is inactive: 7.38%. For `Cc1cccc(N2CCN(C(=O)c3ccc(NC(=O)c4nsc5ccccc45)cc3)CC2C)c1` (stereo not given) the value was inactive: -47%.
